# Data as given in the supplement of paper PMC8728848.
# The list shows a part of the results.
# B1: LSECtin (Homo sapiens), Q6UXB4 (protein)
# chain: MDTTRYSKWGGSSEEVPGGPWGRWVHWSRRPLFLALAVLVTTVLWAVILSILLSKASTERAALLDGHDLLRTNASKQTAALGALKEEVGDCHSCCSGTQAQLQTTRAELGEAQAKLMEQESALRELRERVTQGLAEAGRGREDVRTELFRALEAVRLQNNSCEPCPTSWLSFEGSCYFFSVPKTTWAAAQDHCADASAHLVIVGGLDEQGFLTRNTRGRGYWLGLRAVRHLGKVQGYQWVDGVSLSFSHWNQGEPNDAWGRENCVMMLHTGLWNDAPCDSEKDGWICEKRHNC
# What was measured:
# Test in all cases: glycan array binding signal (z-score within array); higher = stronger binding
# Details in all cases: glycan notation: IUPAC condensed, linker removed
# [1] = target: Gal(b1-4)GlcNAc(b1-6)Gal(b1-4)GlcNAc
# Method in brief: (§1)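 The binding signal is a Z-score computed within each array and averaged over linkers. Arrays of the same protein sequence at different concentrations or buffers were also averaged together. Data originate from 3228 arrays in the Consortium for Functional Glycomics database, kept only where the protein sequence was available.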
# [2] = target: Gal(b1-4)GlcNAc(b1-6)Gal(b1-4)GlcNAc(b1-6)GalNAc
# Method in brief: as §1
# [3] = target: Gal(b1-4)GlcNAc(b1-6)GalNAc
# Method in brief: as §1
# [4] = target: Gal(b1-4)GlcNAc(b1-6)[Gal(b1-3)]GalNAc
# Method in brief: as §1
# [5] = target: Gal(b1-4)GlcNAc(b1-6)[Gal(b1-4)GlcNAc(b1-3)]GalNAc
# Method in brief: as §1
# [6] = target: Gal(b1-4)GlcNAc6P
# Method in brief: as §1
# [7] = target: Gal(b1-6)Gal
# Method in brief: as §1
# [8] = target: Gal3S(b1-3)GalNAc
# Method in brief: as §1
# [9] = target: Gal3S(b1-3)GlcNAc
# Method in brief: as §1
# [10] = target: Gal3S(b1-3)[Fuc(a1-4)]GalNAc
# Method in brief: as §1
# [11] = target: Gal3S(b1-3)[Fuc(a1-4)]GlcNAc
# Method in brief: as §1
# [12] = target: Gal3S(b1-4)Glc
# Method in brief: as §1
# [13] = target: Gal3S(b1-4)Glc6S
# Method in brief: as §1
# [14] = target: Gal3S(b1-4)GlcNAc
# Method in brief: as §1
# [15] = target: Gal3S(b1-4)GlcNAc6S
# Method in brief: as §1
# [16] = target: Gal3S(b1-4)[Fuc(a1-3)]Glc
# Method in brief: as §1
# [17] = target: Gal3S(b1-4)[Fuc(a1-3)]Glc6S
# Method in brief: as §1
# [18] = target: Gal3S(b1-4)[Fuc(a1-3)]GlcNAc
# Method in brief: as §1
# [19] = target: Gal3S(b1-4)[Fuc(a1-3)]GlcNAc6S
# Method in brief: as §1
# [20] = target: Gal3S4S(b1-4)GlcNAc
# Method in brief: as §1
# [21] = target: Gal3S6S(b1-4)GlcNAc
# Method in brief: as §1
# [22] = target: Gal3S6S(b1-4)GlcNAc6S
# Method in brief: as §1
# [23] = target: Gal4S(b1-4)GlcNAc
# Method in brief: as §1
# [24] = target: Gal4S6S(b1-4)GlcNAc
# Method in brief: as §1
# [25] = target: Gal6P(b1-4)GlcNAc
# Method in brief: as §1
# [26] = target: Gal6S(b1-3)GlcNAc
# Method in brief: as §1
# [27] = target: Gal6S(b1-3)GlcNAc6S
# Method in brief: as §1
# [28] = target: Gal6S(b1-4)Glc
# Method in brief: as §1
# [29] = target: Gal6S(b1-4)Glc6S
# Method in brief: as §1
# [30] = target: Gal6S(b1-4)GlcNAc
# Method in brief: as §1
# [31] = target: Gal6S(b1-4)GlcNAc6S
# Method in brief: as §1
# [32] = target: GalNAc(a1-3)Gal
# Method in brief: as §1
# [33] = target: GalNAc(a1-3)GalNAc
# Method in brief: as §1
# [34] = target: GalNAc(a1-3)GalNAc(a1-3)Gal(a1-4)Gal(b1-4)GlcNAc
# Method in brief: as §1
# [35] = target: GalNAc(a1-3)GalNAc(b1-3)Gal(a1-4)Gal(b1-4)Glc
# Method in brief: as §1
# [36] = target: GalNAc(a1-3)GalNAc(b1-3)Gal(a1-4)Gal(b1-4)GlcNAc
# Method in brief: as §1
# [37] = target: GalNAc(b1-3)Gal
# Method in brief: as §1
# [38] = target: GalNAc(b1-3)Gal(a1-4)Gal(b1-4)GlcNAc
# Method in brief: as §1
binder,measurement,setting,value
B1,glycan array binding signal (z-score),[1],-0.219
same,glycan array binding signal (z-score),[2],0.855
same,glycan array binding signal (z-score),[3],-0.14
same,glycan array binding signal (z-score),[4],-0.126
same,glycan array binding signal (z-score),[5],-0.129
same,glycan array binding signal (z-score),[6],-0.133
same,glycan array binding signal (z-score),[7],-0.14
same,glycan array binding signal (z-score),[8],-0.211
same,glycan array binding signal (z-score),[9],-0.029
same,glycan array binding signal (z-score),[10],-0.13
same,glycan array binding signal (z-score),[11],-0.158
same,glycan array binding signal (z-score),[12],-0.216
same,glycan array binding signal (z-score),[13],-0.136
same,glycan array binding signal (z-score),[14],-0.021
same,glycan array binding signal (z-score),[15],0.471
same,glycan array binding signal (z-score),[16],-0.173
same,glycan array binding signal (z-score),[17],-0.107
same,glycan array binding signal (z-score),[18],-0.132
same,glycan array binding signal (z-score),[19],-0.133
same,glycan array binding signal (z-score),[20],0.482
same,glycan array binding signal (z-score),[21],-0.198
same,glycan array binding signal (z-score),[22],-0.05
same,glycan array binding signal (z-score),[23],-0.143
same,glycan array binding signal (z-score),[24],-0.19
same,glycan array binding signal (z-score),[25],-0.12
same,glycan array binding signal (z-score),[26],-0.138
same,glycan array binding signal (z-score),[27],-0.136
same,glycan array binding signal (z-score),[28],-0.141
same,glycan array binding signal (z-score),[29],-0.207
same,glycan array binding signal (z-score),[30],-0.19
same,glycan array binding signal (z-score),[31],-0.109
same,glycan array binding signal (z-score),[32],-0.117
same,glycan array binding signal (z-score),[33],-0.153
same,glycan array binding signal (z-score),[34],-0.148
same,glycan array binding signal (z-score),[35],-0.135
same,glycan array binding signal (z-score),[36],-0.139
same,glycan array binding signal (z-score),[37],-0.182
same,glycan array binding signal (z-score),[38],-0.199
